# Laboratory results published in PubChem BioAssay AID485344 (National Center for Advancing Translational Sciences (NCATS), 2010).
# The whole screen tested about 340,000 compounds, of which about 6,900 (2%) were called active. Cut-off read from the data, not from the text of the source: active = inhibition above about 30%; inactive = below that, where a call was filed. The list shows a part of the results, in another mix than the full data. The source gives no active or inactive call for entries shown without one.
# Target: D(2) dopamine receptor (Homo sapiens) (UniProt P14416)
# UniProt P14416, sequence (P14416 whole entry, looked up): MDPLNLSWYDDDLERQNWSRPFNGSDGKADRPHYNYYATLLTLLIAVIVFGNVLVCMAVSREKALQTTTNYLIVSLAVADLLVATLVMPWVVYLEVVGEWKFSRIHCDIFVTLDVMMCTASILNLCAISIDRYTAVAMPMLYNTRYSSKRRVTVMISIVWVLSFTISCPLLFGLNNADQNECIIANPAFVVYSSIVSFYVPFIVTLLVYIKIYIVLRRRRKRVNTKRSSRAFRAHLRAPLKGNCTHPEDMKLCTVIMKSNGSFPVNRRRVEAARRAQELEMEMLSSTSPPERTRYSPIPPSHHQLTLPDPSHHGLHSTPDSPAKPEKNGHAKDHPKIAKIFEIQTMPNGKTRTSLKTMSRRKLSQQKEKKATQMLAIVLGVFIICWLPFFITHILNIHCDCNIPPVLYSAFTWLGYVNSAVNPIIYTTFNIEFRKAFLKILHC
# Assay: HTS Assay for Allosteric Antagonists of the Human D2 Dopamine Receptor: Primary Screen for Antagonists; note: 0% is about no effect
# Settings: HEK293 TREx D2 cells, calcium flux, dopamine EC80; at 10 µM; stronger effect = higher value
# Method in brief: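 Inhibition of EC80 dopamine-driven calcium flux, recorded kinetically, defines activity here; cells are a tetracycline-induced HEK293 T-REx line expressing force-coupled D2.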
row,SMILES,inhibition
1,COc1ccc(NC(=O)c2ccc(CNS(=O)(=O)c3ccc4c(c3)C(C)(C)C(=O)N4C)cc2)cc1,-7.85%
2,CCCCN(C)C(=O)C1CCC(CNS(=O)(=O)c2ccc3c(c2)CC(C)N3C(C)=O)CC1 (configuration not stated),11.1%
3,CCCc1nn2c(=O)cc(COc3ccc(/C=C(\C#N)C(=O)Nc4ccc(F)cc4)cc3)nc2s1,12%
4,CCN(CC)C(=O)Cn1c(SCCOc2ccc(Cl)cc2)nc2ccccc21,15.6%
5,COc1cc(CN(C(=O)c2cccc(Cl)c2)c2ccccn2)cc(OC)c1OC,-12%
6,CC(C)(C)OC(=O)NCCCCCc1nnc(SCc2ccccc2)o1,active: 35.8%
7,CCC(C(=O)N1CCN(c2ccccc2F)CC1)n1nc(C)c2sc3ccccc3c2c1=O (configuration not stated),8.17%
8,COc1ccc(NC(=O)CCn2nc(-c3ccccc3OC)c3c(C)cc(C)nc32)cc1,24.2%
9,Cc1ccccc1OCc1ccc(-c2nc(C#N)c(N3CCN(C)CC3)o2)o1,-6.4%
10,Cc1ccc(Cl)cc1N1CCN(C(=O)c2cccn3c(=O)c4cc(Cl)ccc4nc23)CC1,-19.6%
11,NNC(=O)c1ccc(COCC(F)(F)F)cc1,active: 52.9%
12,CC1=C(C(=O)OCC(C)C)C(c2ccc(OCc3ccccc3)cc2)N2C(=O)CCSC2=N1 (configuration not stated),-21%
13,Cc1ccc(-n2nc(C(=O)Nc3ccc(Cl)cn3)c3c4ccccc4n(C)c3c2=O)cc1,22.2%
14,COc1ccc(C2C(=O)N(C3CCCCC3)CC(=O)N2CCc2ccc(OC)c(OC)c2)cc1 (configuration not stated),19.4%
15,Cc1ccc(C)c(CN2C(=O)C3(c4ccccc42)N(c2cccc(C(F)(F)F)c2)C(=O)CS3(=O)=O)c1 (configuration not stated),7.69%
16,CCOC(=O)c1cc(C)n(CC2CCC(C(=O)Nc3ccc(OCC)cc3)CC2)c1C (configuration not stated),2.4%
17,COc1cc(NC(=O)c2nc3ccccc3nc2C)cc(OC)c1OC,-8.65%
18,Cc1ccc(Cl)cc1-n1ncc2c(NCCCn3ccnc3)ncnc21,19.8%
19,Cc1ccc2c(=O)cc(C(=O)Nc3sc4c(c3C(N)=O)CCCC4)oc2c1,-4.56%
20,O=C(C1CCN(S(=O)(=O)Cc2ccccc2)CC1)N1CCN(c2ccc(F)cc2)CC1,8.89%
21,O=C(C1CCCN(S(=O)(=O)c2ccc(Br)s2)C1)N1CCN(c2ccc(F)cc2)CC1 (configuration not stated),3.55%
22,Cc1cc(NC(=O)CSc2nc3c([nH]c4ccccc43)c(=O)n2-c2ccccc2)no1,-28.6%
23,O=c1cc(-c2ccc(F)cc2)nc(SCc2nc(-c3cccc(Cl)c3)no2)[nH]1,-15%
24,CC(C)(C)n1nnnc1CN1CCN2CCCC2C1 (configuration not stated),active: 36.8%

row,SMILES,inhibition
1,CCc1ccc(NC(=O)CSc2nccn2-c2cccc(C)c2C)cc1,19.7%
2,CCc1ccc(NC(=O)c2ccc(F)c(S(=O)(=O)N(C)C3CCCCC3)c2)cc1,11.9%
3,Cc1ccc(C2CC(=O)N(Cc3ccccc3)c3c2c(C)nn3-c2nc(C)cc(C)n2)cc1 (configuration not stated),8.53%
4,CC1CN(C(=O)N2CCC(C(=O)NCCC3=CCCCC3)CC2)c2cc(Cl)ccc2O1 (configuration not stated),16.9%
5,COc1ccc(NC(=O)CSc2nc3ccncc3[nH]2)c(OC)c1,-4.51%
6,COc1ccc(-c2cn3nc(N4CCC(C(=O)Nc5cccc(OC)c5)CC4)sc3n2)cc1,-7.26%
7,CCOc1ccc(Sc2cc(C(=O)NC(C)CC)c3ccccc3n2)cc1 (configuration not stated),15.9%
8,Cc1ccc(NC(=O)N2CCN(c3ncccc3C(F)(F)F)CC2)cc1,active: 37.4%
9,O=C(Cn1ncc2c3ccccc3n(Cc3ccc(Cl)cc3)c2c1=O)NCc1cccs1,4.99%
10,COc1ccc(N2CCN(S(=O)(=O)c3ccc(OC)c(-c4noc(C)n4)c3)CC2)cc1,21.4%
11,Cc1nc2sc(C(=O)Nc3ccc(F)cc3)c(N)c2c(-c2ccc(Br)cc2)c1C(=O)Nc1ccc(Cl)cc1,-3.61%
12,CCc1cccc(NC(=O)c2cnc(SC)nc2-c2ccccc2)c1,5.82%
13,Cc1cc2nc(-c3ccc(OCc4ccc(F)cc4)cc3)cc(C(F)(F)F)n2n1,2.08%
14,COC(=O)c1ccc(NC(=O)CC2C(=O)N(c3ccc(F)cc3)C(=O)N2Cc2ccc(OC)cc2)cc1 (configuration not stated),-8.61%
15,CCCCOc1ccc(C(=O)NCCc2sc(-c3cccc(F)c3)nc2C)cc1,20.2%
16,Cc1ccc(C)c(Cn2c(=O)n(Cc3ccc4c(c3)OCO4)c(=O)c3oc4ccccc4c32)c1,19.6%
17,O=C(Nc1ccc(NC(=O)c2cccs2)cc1)c1cccc(Br)c1,3.66%
18,COc1ccccc1NC(=O)c1oc2ccccc2c1NC(=O)c1ccccc1C(F)(F)F,4.34%
19,Cc1cccc(NC(=O)c2sc3nc4c(cc3c2N)CN(Cc2ccccc2)CC4)c1,-2.38%
20,CCCn1c(=O)c2sccc2n2c(CCCC(=O)Nc3ccccc3OCC)nnc12,-19.9%
21,COc1ccc(CC(=O)N2CC(=O)Nc3ccc(Br)cc3C2c2ccc(F)cc2)cc1 (configuration not stated),13.7%
22,Cc1ccc(CN(C(=O)COc2ccc(C(C)C)cc2)C2CCS(=O)(=O)C2)o1 (configuration not stated),4.13%
23,N#Cc1ccccc1Cn1c(=O)n(CCCCC(=O)NCc2ccc3c(c2)OCO3)c(=O)c2ccccc21,-7.14%
